Assay results published in PMC4336329 (PLoS ONE, 2015).
The campaign covered roughly 310,000 compounds. About 2,200 (0.71%) showed an effect of 50% or more. Effects have a minus sign here. The list shows a part of the results.

target: human ether-à-go-go-related gene (hERG) potassium channel (human, UniProt Q12809); assay: primary screen, population patch clamp on CHO cells stably expressing hERG
Sequence (Q12809 whole entry, looked up): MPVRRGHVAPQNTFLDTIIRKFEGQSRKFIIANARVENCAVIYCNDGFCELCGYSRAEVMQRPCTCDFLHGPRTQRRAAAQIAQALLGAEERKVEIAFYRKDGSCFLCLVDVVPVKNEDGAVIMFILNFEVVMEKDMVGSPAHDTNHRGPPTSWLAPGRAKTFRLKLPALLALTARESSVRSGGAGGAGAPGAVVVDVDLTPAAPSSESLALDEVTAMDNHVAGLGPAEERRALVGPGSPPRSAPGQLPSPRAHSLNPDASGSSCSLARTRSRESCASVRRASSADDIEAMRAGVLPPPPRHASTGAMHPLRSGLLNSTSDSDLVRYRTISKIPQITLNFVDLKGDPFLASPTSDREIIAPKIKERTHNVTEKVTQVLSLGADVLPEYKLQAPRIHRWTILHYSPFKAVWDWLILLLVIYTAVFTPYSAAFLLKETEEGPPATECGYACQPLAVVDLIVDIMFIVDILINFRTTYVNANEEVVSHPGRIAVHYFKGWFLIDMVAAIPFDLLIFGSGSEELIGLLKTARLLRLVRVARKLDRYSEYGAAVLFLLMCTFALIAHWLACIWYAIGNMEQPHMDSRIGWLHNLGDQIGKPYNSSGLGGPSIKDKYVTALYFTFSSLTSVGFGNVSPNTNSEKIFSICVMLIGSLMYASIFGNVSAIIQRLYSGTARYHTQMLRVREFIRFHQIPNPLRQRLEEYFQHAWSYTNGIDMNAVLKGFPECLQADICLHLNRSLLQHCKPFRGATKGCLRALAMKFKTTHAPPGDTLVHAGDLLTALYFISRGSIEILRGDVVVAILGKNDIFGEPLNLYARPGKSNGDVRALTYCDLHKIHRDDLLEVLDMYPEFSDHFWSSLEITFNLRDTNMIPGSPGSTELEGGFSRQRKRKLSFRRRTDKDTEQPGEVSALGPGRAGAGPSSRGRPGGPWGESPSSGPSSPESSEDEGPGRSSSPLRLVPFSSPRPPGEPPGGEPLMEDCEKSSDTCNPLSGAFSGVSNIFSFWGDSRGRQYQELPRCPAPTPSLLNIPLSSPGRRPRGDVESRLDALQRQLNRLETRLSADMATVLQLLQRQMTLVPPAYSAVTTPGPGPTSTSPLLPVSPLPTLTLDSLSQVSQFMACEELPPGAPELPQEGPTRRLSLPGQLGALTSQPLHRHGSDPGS

Row | Compound | hERG current change (%, negative = inhibition) at 1uM [%]
1 | COc1ccc(N=C(C)c2c(O)[nH]c(=O)[nH]c2=O)cc1 | 13.9
2 | O=C(CCl)Nc1cccc(S(=O)(=O)NC2=NCCC2)c1 | 12.1
3 | Oc1ccc2ccccc2c1CN1CCOCC1 | 10.3
4 | O=C(NCc1ccc(F)cc1Cl)C1CC(=O)N(C2CCCCCCC2)C1 (centres unmarked) | 13.7
5 | C(=N\N=C\c1cccs1)/c1cccs1 | 9.5
6 | CN(CCOC(=O)CN1C(=O)c2ccccc2C1=O)C1=NS(=O)(=O)c2ccccc21 | 8.18
7 | CCOc1ccc(CN(C)C(=O)CN2C(=O)NC3(CCCc4ccccc43)C2=O)cc1 (centres unmarked) | 9.67
8 | CN(CC(=O)Nc1ccc(Cl)c(Cl)c1)C1CCCCC1.O=C(O)C(=O)O | 13
9 | CN(C(=O)c1cn2ccccc2n1)c1c(N)n(Cc2ccccc2)c(=O)[nH]c1=O | 16.2
10 | Cc1ccc2cc(CCNS(=O)(=O)c3ccc(F)cc3)c(=O)[nH]c2c1 | 1.31
11 | CC(=O)Nc1ccc(NC(=O)c2cc(=O)c3cc(C)c(C)cc3o2)cc1 | 6.98
12 | COc1cccc(-c2cc(C(=O)N3CCOCC3)no2)c1 | 15.7
13 | COc1ccc(CNc2nc(NCc3ccc(OC)cc3)n(C(=O)c3ccncc3)n2)cc1 | 21.3
14 | O=C(CN1C(=O)NC2(CCCC2)C1=O)Nc1cc(S(=O)(=O)N2CCOCC2)ccc1OCC(F)(F)F | 13
15 | CC(NC(=O)c1ccccc1)c1nnc(SCC(=O)NC2CCCC2)n1C (centres unmarked) | 13.9
16 | Cc1ccc(NC(=O)CNc2cccc(S(=O)(=O)N3CCCCC3)c2)cc1F | 11.9
17 | CC(CC(=O)N1CCN(c2ccccc2)CC1)c1ccccc1 (centres unmarked) | 14
18 | Cc1ccc(OCCN2CCN(C(=O)CCC(=O)Nc3nnc(C)s3)CC2)cc1 | 3.99
19 | CSc1cccc(NC(=O)C2CCCN(c3ncnc4c3nc3n4CCCCC3)C2)c1 (centres unmarked) | 4.71
20 | CCCS(=O)(=O)c1nc(S(=O)(=O)c2ccc(C)cc2)c(NCc2ccco2)s1 | 6.82
21 | Cc1ccc(-c2nc(CS(=O)(=O)CC(=O)N3CCN(C)CC3)c(C)o2)cc1 | 10.3
22 | C[C@H]1[C@H](NC(=O)C(=NOC(C)(C)C(=O)O)c2csc(N)n2)C(=O)N1S(=O)(=O)O | 11.5
23 | CC(C)C1CCC(C(=O)N[C@H](Cc2ccccc2)C(=O)O)CC1 (some centres unmarked) | 3.48

Row | Compound | hERG current change (%, negative = inhibition) at 1uM [%]
24 | COc1cccc(-c2c(C#N)c(N)nc3c2c(C)nn3-c2ccccc2)c1O | 1.84
25 | Cc1cccc(C)c1OCC(=O)NNC(=O)Nc1ccc(Cl)cc1 | 0.0482
26 | CNC(=S)NNC(=O)c1cccc(N(C)C)c1 | 2.36
27 | COc1ccc(Cl)cc1NC(=O)C(C)Sc1nncn1C (centres unmarked) | 8.46
28 | CCOC(=O)n1c(=O)oc2cc(S(=O)(=O)N3CCOCC3)ccc21 | -12.9
29 | Cc1ccc(S(=O)(=O)N2CCCC2C(=O)NCc2ccco2)cc1 (centres unmarked) | 8.74
30 | Cc1nc(NC(=O)/C=C/c2ccccc2)sc1C(=O)NCCO | 12.2
31 | CC(NC(=O)c1ccc(CS(C)(=O)=O)cc1)C1CC2CCC1C2 (centres unmarked) | 4.05
32 | Cn1cc(CCC(=O)NCCCc2ccccc2)c2ccccc21 | 13.2
33 | O=C(NCCN1CCOCC1)/C(=C\c1ccccc1F)NC(=O)c1ccccc1 | 0.467
34 | COc1cccc(NC(=O)CSc2c3c(nc4ccccc24)CCCC3)c1 | 6.57
35 | CCC(=O)OCCNc1nc(-c2ccccc2)nc2ccccc12.Cl | -2.96
36 | COc1cccc(S(=O)(=O)Nc2cccc(C(=O)N3CCCC3)c2)c1 | 6.5
37 | CC(C)NC(=O)c1cc2n(n1)C(C(F)(F)F)CC(c1ccco1)N2 (centres unmarked) | 10.6
38 | CSc1ccc(S(=O)(=O)NCC(=O)OCC(=O)N(C)CC(=O)Nc2ccccc2Cl)cc1[N+](=O)[O-] | 11.1
39 | CCOC(=O)C1CCN(C(=O)N(C)C)CC1 | 16.5
40 | C=C(C)CNC(=S)NNC(=O)c1ccncc1 | 10.6
41 | Cc1cc(NC(=S)NC(=O)CC(C)C)ccc1Br | 7.82
42 | CCCOc1c(Br)cc(C(=O)NCC)cc1OC | -7.47
43 | OC(COc1ccccc1)CSc1ncn[nH]1 (centres unmarked) | 2.81
44 | COc1ccc(/C=C/C(=O)O)cc1S(=O)(=O)NCc1ccccc1 | 6.84
45 | CC(=O)Nc1ccc(C(=O)COC(=O)CN2C(=O)NC3(CCCCC3C)C2=O)cc1 (centres unmarked) | 12.7
46 | CSc1nnc(-c2cc[n+](C)cc2)n1CCO.[I-] | 6.95

Row | Compound | hERG current change (%, negative = inhibition) at 1uM [%]
47 | Cc1c(Cl)cccc1NC(=O)COc1ccc(S(=O)(=O)N2CCOCC2)cc1 | 3.86
48 | COC(=O)C1(O)CC(C(C)C)=NN1C(=O)c1ccc(Cl)cc1 (centres unmarked) | 7.83
49 | O=S(=O)(Nc1cccc(-c2cn3cccnc3n2)c1)c1ccccc1 | 6.1
50 | CC(=O)c1ccc(OCc2cccc(C(F)(F)F)c2)cc1O | 13.5
51 | CC(C)N(C(=O)CSc1nc2c([nH]1)c(=O)n(C)c(=O)n2C)c1ccccc1 | 12.7
52 | NC(=O)c1cc([N+](=O)[O-])ccc1NCCN1C(=O)c2ccc(C(=O)O)cc2C1=O | 13.4
53 | CC(C)OC(=O)CC1C(=O)NCCN1C(=S)NC(=O)c1ccccc1Cl (centres unmarked) | 9.35
54 | CC(C)C(=O)Nc1ccc2oc(=O)ccc2c1 | 13.6
55 | Cc1ccc(NC(=O)COC(=O)[C@H](C)NC(=O)c2ccccc2)cc1S(=O)(=O)N1CCOCC1 | 5.35
56 | O=C(NCc1n[nH]c(=S)n1-c1ccc(F)cc1)c1ccc(S(=O)(=O)N2CCCC2)cc1 | 15.7
57 | CCOc1ccc(-n2c(=O)c3sccc3n(CC(=O)NC3CCCCC3)c2=O)cc1 | 16.8
58 | COc1ccc(-c2csc(N3CCN(Cc4ccc5c(c4)OCO5)CC3)n2)cc1 | 5.65
59 | O=C(NNC(=S)Nc1cccc(Cl)c1)c1ccccc1OC(F)F | 13.8
60 | COc1ccc(NC(=O)CCc2ccccc2)cc1S(=O)(=O)N1CCCCC1 | 12.1
61 | CC(C)(C)C(=O)NNC(=O)CCCOc1ccc(Cl)cc1Cl | 15.6
62 | Cc1ccc2nc(C)cc(Cl)c2c1 | 12.9
63 | CNC(=O)c1c[nH]n2c(=O)c(Cc3ccccc3F)c(C)nc12 | 10.7
64 | O=C(NCCCN1CCOCC1)c1cc(S(=O)(=O)N2CCOCC2)c(Cl)cc1Cl | 11.2
65 | CC1=C(C(=O)OCc2ccccc2)C(/C=C/c2ccccc2)NC(=S)N1 (centres unmarked) | 4.09
66 | CCOC(=O)N1CCN(C(=O)c2ccccc2NC(=O)c2ccccc2Cl)CC1 | 10.4
67 | CCC(C)CCCCNC1=NCCS1 (centres unmarked) | 10.9
68 | COC(=O)c1ccc2ccccc2n1 | 9.64
69 | CCCc1cc(=O)[nH]c(SCC(=O)c2cc(C)n(CC(F)(F)F)c2C)n1 | 9.55

Row | Compound | hERG current change (%, negative = inhibition) at 1uM [%]
70 | O=C(Nc1ccncc1)c1cccc(S(=O)(=O)N2CCN(c3ccc(F)cc3)CC2)c1 | -11.6
71 | Cc1cc2c(c(=O)o1)C(C(C)C)C(C#N)=C(N)O2 (centres unmarked) | 5.02
72 | O=C(COC(=O)c1ccccc1NC(=O)c1ccco1)Nc1ccc2c(c1)OC(F)(F)O2 | 16.7
73 | Cc1ccc(CNC(=O)c2ccc(NS(=O)(=O)c3cccs3)cc2)cc1 | 11.7
74 | CCc1nc2sc3ccccc3c(=O)c2c(=O)n1Cc1ccc(OC)cc1 | 11.4
75 | Cc1cc(CSc2ccccc2)ccc1NC(=O)COc1ccccc1 | 12.6
76 | COc1ccccc1Nc1nc(-c2sc(NC(=O)c3ccc([N+](=O)[O-])cc3)nc2C)cs1 | 6.62
77 | CC1CCN(CCCNC(=O)COc2cc(=O)n(C)c3ccccc23)CC1 | 7.37
78 | CCOc1ccc(-n2c(SCC(=O)c3c(N)n(C)c(=O)n(C)c3=O)nnc2-c2cccnc2)cc1 | 5.4
79 | COC(=O)c1ccc2c(c1)NC(=O)CS2 | 9.14
80 | CC(NC(=O)C(=O)NN=C1CCCCCCCCCCC1)c1ccccc1 (centres unmarked) | 12.7
81 | CCn1cc([N+](=O)[O-])c(C(=O)Nc2ccc(Cn3nc(C)cc3C)cc2)n1 | -8.43
82 | CCSC1=C(C#N)C2(CCCC2)C(C#N)=C(N)N1 | -6.47
83 | COc1ccc(C(=O)OCCN2CCOCC2)cc1OC.Cl | 8.9
84 | O=C1ON=C(c2ccc([N+](=O)[O-])cc2)/C1=C/c1ccccc1O | 12.3
85 | CCOC(=O)c1c(NC(=O)c2cccc(N3C(=O)CCC3=O)c2)sc(C)c1C | 5.3
86 | Cc1c(C(=O)N/N=C/c2ccc(O)c(Br)c2)sc(N)c1C#N | 5.36
87 | Cn1cc(Cl)c(C(=O)NC2CCCC2)n1 | 8.17
88 | CC(=O)Nc1ccc(-c2csc(NC(=O)C3CC(=O)N(c4ccc5c(c4)OCCO5)C3)n2)cc1 (centres unmarked) | 8.25
89 | Cc1ccc(OCCC(=O)OCC(=O)NC2CCS(=O)(=O)C2)cc1 (centres unmarked) | 11.7
